Measurements from PubChem BioAssay AID902 (National Center for Advancing Translational Sciences (NCATS), 2007).
The campaign covered roughly 130,000 compounds. About 1,900 (1.5%) were called active. This list was built around the results that the source calls inconclusive (neither active nor inactive); the mix of calls is not that of the screen. The call rests on the fitted dose curve; in most records, active means well fitted cell-killing curve with a large enough effect; inconclusive means small, poorly fitted or top-dose-only effect; inactive means no such curve, though single readings can be large or run the other way. Potencies beside an inconclusive call are fits to weak or partial responses and may not hold up.

Assay: qHTS Screen for Compounds that Selectively Target Cancer Cells with p53 Mutations: Cytotoxicity of p53ts Cells at the Nonpermissive Temperature; further: nearly all actives have a fitted effect of over 55% in size
Conditions: H1299-p53A138V viability at 39C, ATP luminescence, 24 h; activity change, negative = cell killing: at 46.1 µM (top of the series)
On the % scale 0 is the no-effect control and ±100 the full control effect; potency means the concentration at half of the fitted maximal effect; tags describe the fitted curve by direction and shape.

| Structure (SMILES) | Potency | activity change, negative = cell killing |
| --- | --- | --- |
| O=C(Cn1c(=O)n(-c2ccc(Cl)cc2)c(=O)c2c3c(sc21)CCC3)c1ccccc1 | inactive |  |
| Cc1ccc(S(=O)(=O)c2nnn3c2nc(NCc2ccccc2Cl)c2sccc23)cc1 | inconclusive: 20 µM [cytotoxic, partial curve] |  |
| Cn1c(SCc2ccccc2F)nc2c([nH]c3ccccc32)c1=O | inconclusive: 3.16 µM [cytotoxic, full curve, poor fit] |  |
| CCn1c2ccccc2c2cc(CN3CCN(Cc4ccccc4C)CC3)ccc21 | inconclusive: 20 µM [cytotoxic, partial curve] |  |
| FC(F)C(F)(F)C(F)(F)C(F)(F)c1cc(-c2ccccc2)n[nH]1 | inconclusive: 31.6 µM [cytotoxic, single point] |  |
| Cc1cs/c(=N/C(=S)Nc2ccccc2)n1C | inconclusive: 1.41 µM [cytotoxic, full curve] |  |
| COc1cccc(-n2c(=O)c3sc4ccccc4c3n(CC(=O)Nc3ccccc3C)c2=O)c1 | inactive |  |
| O=C(CSc1c2c(nc3cc(Cl)ccc13)CCCC2)NCc1ccccc1Cl | inconclusive: 12.6 µM [cytotoxic, partial curve, poor fit] |  |
| COc1ccccc1OCC(=O)Nc1c(C(=O)c2ccc(F)cc2)oc2ccccc12 | inconclusive: 12.6 µM [cytotoxic, single point] |  |
| O=C1c2ccccc2-c2onc3c(NCCO)cc(NC4CCCCC4)c1c23 | inconclusive: 10 µM [cytotoxic, partial curve] |  |
| CC(Sc1oc(-c2cccs2)nc1S(=O)(=O)c1ccccc1)c1ccccc1 (configuration not stated) | inconclusive: 0.501 µM [cytotoxic, full curve, poor fit] |  |
| CCc1ccc(S(=O)(=O)c2nnn3c2nc(NCc2ccccc2OC)c2cc(Cl)ccc23)cc1 | inconclusive: 0.316 µM [cytotoxic, single point] |  |
| CCCCCn1c(=N)n(CC(O)COc2cccc(C)c2)c2ccccc21 (configuration not stated) | active: 10 µM |  |
| COc1ccc(S(=O)(=O)N2CCN(CC(=O)Nc3ccc(C)c(F)c3)CC2)cc1 | inconclusive: 25.1 µM [cytotoxic, single point] |  |
| Cc1ccc(N2CCN(C(=O)c3noc4c3COc3ccc(C)cc3-4)CC2)c(C)c1 | inconclusive: 1.58 µM [cytotoxic, partial curve, poor fit] |  |
| COc1ccc(CCCO[C@@H](Cn2ccnc2)c2ccc(OC)cc2)cc1 | active: 31.6 µM |  |
| CCCN(CCC)CC(O)Cn1cc(/C=C/C(=O)c2ccc(OCC)cc2)c2ccccc21 (configuration not stated) | inconclusive: 15.8 µM [cytotoxic, single point] |  |
| CCc1ccc(NC(=O)C(=O)NCC(c2cccnc2)N2CCOCC2)cc1 (configuration not stated) | inconclusive: 31.6 µM [cytotoxic, single point] |  |
| Cc1ccc(CN(Cc2ccco2)C(=O)c2oc3c(C)c(C)ccc3c2C)cc1 | inconclusive: 35.5 µM [cytotoxic, single point] |  |
| CN(C)c1ccc(C(=C2C=CC(=[N+](C)C)C=C2)c2ccccc2)cc1 | inconclusive: 12.6 µM [cytotoxic, full curve, poor fit] |  |
| CCOc1ccc(-c2nn3c(-c4ccccc4)nnc3s2)cc1 | inactive |  |
| CC(C)Oc1ccc(CNC(=O)c2ccc3nc(Cc4ccccc4)oc3c2)cc1 | inconclusive: 3.16 µM [cytotoxic, full curve, poor fit] |  |
| Clc1ccccc1Cc1cn2cc(-c3ccccc3)nc2s1 | active: 3.16 µM |  |

| Structure (SMILES) | Potency | activity change, negative = cell killing |
| --- | --- | --- |
| Cc1ccc(-c2nc3cccnc3s2)cc1NC(=O)Cc1ccccc1 | inconclusive: 10 µM [cytotoxic, partial curve] |  |
| CCOc1ccc(CNC(=O)CCCn2c(=O)c3cccn3c3ccc(F)cc32)cc1 | inactive |  |
| CC(=O)N1CCc2c(sc3c2c(=O)n(Cc2ccccc2)c(=O)n3CC(=O)Nc2ccc(C)c(F)c2)C1 | inactive |  |
| CCc1ccc(S(=O)(=O)c2nnn(-c3cccc(C)c3)c2N)cc1 | inactive |  |
| CCOC(=O)c1c(-c2ccccc2)oc2ccc(NS(=O)(=O)c3ccc(C(C)C)cc3)cc12 | inconclusive: 10 µM [cytotoxic, partial curve] |  |
| CCCCCn1c(=N)n(CC(O)COc2ccccc2OC)c2ccccc21 (configuration not stated) | active: 20 µM |  |
| Cc1ccc(Cn2nc(C)c(NC(=O)c3cc(-c4ccco4)on3)c2C)cc1 | inconclusive: 15.8 µM [cytotoxic, partial curve] |  |
| Cc1ccc(CC(Cc2nc3ccccc3[nH]2)c2nc3ccccc3[nH]2)cc1 (configuration not stated) | inconclusive: 31.6 µM [cytotoxic, single point] |  |
| Cc1ccccc1NC(=O)CSc1nc2ccc(NC(=O)COc3ccccc3F)cc2s1 | inconclusive: 7.94 µM [cytotoxic, single point] |  |
| COCCNC(=O)C(=O)Nc1c2c(nn1-c1ccccc1)CS(=O)(=O)C2 | inactive |  |
| O=C(Nc1ccccc1C(=O)O)c1cccc(S(=O)(=O)N2CCCC2)c1 | inconclusive: 12.6 µM [cytotoxic, single point] |  |
| COc1ccccc1CCNC(=O)c1cc2ccccn2n1 | inconclusive: 25.1 µM [cytotoxic, single point] |  |
| CCCCNc1cc(NC2CCCCC2)c2c3c(onc13)-c1ccccc1C2=O | inconclusive: 31.6 µM [cytotoxic, single point] |  |
| COc1ccc(OC)c(NC(=O)C2CCCN(S(=O)(=O)c3c(C)noc3C)C2)c1 (configuration not stated) | inactive |  |
| O=S(=O)(NCc1ccccc1)c1ccc2[nH]c3c(c2c1)CCCCC3 | active: 31.6 µM |  |
| COc1cccc(NS(=O)(=O)c2ccc3[nH]cc(C(=O)NC4CCCCC4)c(=O)c3c2)c1 | inconclusive: 15.8 µM [cytotoxic, single point] |  |
| Cc1ccc(SCC(=O)Nc2cccc(-c3nc4cc(Cl)ccc4o3)c2C)cc1 |  | inconclusive: -34.3% [cytotoxic] |
| CCCCn1nnnc1NCc1cccnc1 | inactive |  |
| COc1ccc(OC)c(CCNC(=O)Cn2sc3nc(C)cc(C)c3c2=O)c1 | inactive |  |
| C/C(=N/S(=O)(=O)c1ccc(Cl)c(Cl)c1)OCC(C)(C)C |  | inactive: -7.24% [at 9.22 µM] |
| CC(=O)c1ccc(NC(=O)c2ccn[nH]2)cc1 | active: 10 µM |  |
| Clc1c(CSc2nc3ccccc3o2)nc2ccccn12 | inconclusive: 15.8 µM [cytotoxic, partial curve] |  |
| O=C(Nc1ccccc1C(F)(F)F)c1noc2c1CCCCC2 | active: 12.6 µM |  |

| Structure (SMILES) | Potency | activity change, negative = cell killing |
| --- | --- | --- |
| CC(C)NC(=O)c1cc2c(Cl)nc3ccccc3c2s1 | inconclusive: 31.6 µM [cytotoxic, single point] |  |
| COc1ccc(CCN(Cc2nc3ccccc3c(=O)[nH]2)C(=O)c2ccco2)cc1OC | inconclusive: 31.6 µM [cytotoxic, single point] |  |
| Cc1ccc(NC(=O)C2CCCN(c3nnc(C)c4c(C)n(-c5ccccc5)nc34)C2)cc1Cl (configuration not stated) | inconclusive: 0.316 µM [cytotoxic, single point] |  |
| CCOC(=O)c1cc2c(=O)n3ccccc3nc2n(Cc2ccco2)c1=NC(=O)c1ccccc1OC | inconclusive: 3.16 µM [cytotoxic, partial curve] |  |
| Cc1c2cnn(CC(=O)Nc3ccc(F)cc3F)c(=O)c2c(C)n1Cc1cccc(Cl)c1 | inconclusive: 10 µM [cytotoxic, partial curve] |  |
| Cc1cc(C)cc(OCC(=O)Nc2cccc(-c3nc4ccccc4[nH]3)c2)c1 | inconclusive: 15.8 µM [cytotoxic, single point] |  |
| COc1cc(NC(=O)CSc2nc3nc(C)c(Cc4ccccc4)c(C)n3n2)cc(OC)c1 | inconclusive: 20 µM [cytotoxic, partial curve] |  |
| CCOc1ccc2nc(N3CCCC(C(=O)NCCc4ccc(SC)cc4)C3)sc2c1 (configuration not stated) | inconclusive: 10 µM [cytotoxic, partial curve] |  |
| Cc1nc2nc(-c3cccs3)cn2nc1C | inconclusive: 15.8 µM [cytotoxic, single point] |  |
| O=C(Nc1cnc2ccccc2c1)N1CCCCC1 | inconclusive: 15.8 µM [cytotoxic, partial curve] |  |
| COc1ccc(C2c3c(-c4ccccc4O)n[nH]c3C(=O)N2CCc2ccccc2)cc1 (configuration not stated) | inconclusive: 31.6 µM [cytotoxic, single point] |  |
| CCC(C(=O)OC)n1nnc2sc(-c3ccccc3)cc2c1=O (configuration not stated) | inconclusive: 31.6 µM [cytotoxic, single point] |  |
| COc1ccc2c(c1)c(=O)c(C(=O)c1ccc(C)cc1)cn2Cc1ccccc1F | inconclusive: 12.6 µM [cytotoxic, single point] |  |
| CCC1CCCCN1CCCNC(=O)c1ccc2c(c1)sc1nc(-c3ccc(F)cc3)cn12 (configuration not stated) | inactive |  |
| CCN1C(C)=C(C(=O)OC)C(c2ccccc2)N2C(=O)[C@](O)(C(=O)OC)C(c3ccccc3)C(C(=O)c3ccccc3)=C12 (some centres not stated) |  | inactive: 4.12% [at 9.22 µM] |
| CCCN1CCCc2cc(CN)ccc21 | inconclusive: 25.1 µM [cytotoxic, single point] |  |
| O=C(NC1=NCCS1)c1csc2ccccc12 | inconclusive: 12.6 µM [cytotoxic, partial curve] |  |
| CCCNc1ccc(-c2nc(-c3ccco3)no2)cc1[N+](=O)[O-] | inconclusive: 7.94 µM [cytotoxic, partial curve] |  |
| COc1ccc(CNc2nc(-c3ccco3)nn2C(=O)CC(C)C)cc1 | inconclusive: 31.6 µM [cytotoxic, single point] |  |
| CN(C)c1ccc(-c2cc(N(C)Cc3ccco3)ncn2)cc1 | active: 12.6 µM |  |
| CCOC(=O)c1[nH]c2ccccc2c1NC(=O)c1ccccc1OC | inconclusive: 31.6 µM [cytotoxic, single point] |  |
